Measured values reported in patent publication US12480958B2, “Method for the characterization of peptide:MHC binding polypeptides” (Immatics Biotechnologies GmbH, priority 2019, dated 2025).
Several values for one entry are separate records, joined by “and”; a condition that tells them apart may be missing. Identical values can stand only once. Not every detail of the peptide structures is certain; ends, links or a residue may be inferred. No end group written: not given here.

What follows are sequences tested against PRAME-004 specific peptide:MHC binding polypeptide (assay: Bio-layer interferometry of peptide:MHC complexes with the PRAME-004 binder). Settings: not given.

Sequence | KD as compared to the target peptide PRAME-004
FMNPHLISV [IFT17-003, FMNPHLISV] | similar

Same assay, conditions: ratio of KD in comparison to PRAME-004; HIS1K biosensors

Sequence | Binding affinity fold reduction [fold]
AIWEKLISL [RIF1-004, AIWEKLISL] | 156
ALAKHLIKI [EHD4-001, ALAKHLIKI] | 61
ALCPHLKTL [ZFYVE16-002, ALCPHLKTL] | 33
ALMYHTITL [CTBP1-001, ALMYHTITL] | 13
ALSPHNILL [TBCK-002, ALSPHNILL] | 142
FLPIHLLGL [ATP1A1-001, FLPIHLLGL] | 106
FMNPHLISV [IFT17-003, FMNPHLISV] | 1
HLMPHLLTL [PPP4R1-003, HLMPHLLTL] | 16
ILAMHLIDV [ITSN1-001, ILAMHLIDV] | 36
ILGTHNITV [INT57-002, ILGTHNITV] | 57
KLTSHAITL [MLXI-001, KLTSHAITL] | 12
LLLAHIIAL [FADS2-001, LLLAHIIAL] | 13
LTLGHLMGV [FARSA-001, LTLGHLMGV] | 38
MLAKHVITL [MCM5-006, MLAKHVITL] | 3
SLARHLMTL [TNRC6B-001, SLARHLMTL] | 4
SLTKHLPPL [SFXN3-001, SLTKHLPPL] | 60
TLVYHVVGV [Peptide 5F3B3-005, TLVYHVVGV] | 152
VLLHHQIGL [IFIT1-001, VLLHHQIGL] | 8
YLILHLIST [MCMB-002, YLILHLIST] | 127

What follows are sequences tested on peptide loaded T2 cells (assay: Cytotoxicity (LDH release) of peptide loaded T2 cells with CD8+ T cells and PRAME-004 binder). Settings: not given.
Format: cell-based, human

Sequence | EC50 as compared to the target peptide PRAME-004
FMNPHLISV [IFT17-003, FMNPHLISV] | similar

What follows are sequences tested on MAGA4/8 specific peptide:MHC binding polypeptide (assay: Affinity chromatography and mass spectrometry: isolation efficiency of MAGA4/8 binder versus BB7.2). Settings: NCI-H1755 lysate.

Sequence | decrease in the ratio of areas as compared to MAGA4/8
KVLETLVTV [HEAT5RA, KVLETLVTV] | around 800 fold

Same assay, conditions: NCI-H1755 lysate; mass spectrometry precursor signal areas

Sequence | Ratio of signal areas [MAGA4/8 binder/BB7.2]
KIADFGWSV [KIADFGWSV] | 0.002
KIIDLLPKV [KIIDLLPKV] | 4.009
KLGSVPVTV [FAM115A, KLGSVPVTV] | 0.006
KLQEFLQTL [KLQEFLQTL] | 0.032
KVLEFLAKV [KVLEFLAKV] | 5.218
KVLETLVTV [HEAT5RA, KVLETLVTV] | 0.014

These sequences were tested on MAGA4/8 specific peptide:MHC binding polypeptide (assay: Bio-layer interferometry of peptide:MHC complexes with the MAGA4/8 binder). Settings: compared to MAGA4/8; HIS1K biosensors.

Sequence | Binding affinity fold reduction
KLGSVPVTV [FAM115A, KLGSVPVTV] | 503.1 fold
KVLETLVTV [HEAT5RA, KVLETLVTV] | 238 fold and 237.7 fold
